# Source: the supplement of paper PMC8728848
# This is one part of the list.
# How the values were obtained:
# Experiment in all cases: glycan array binding signal (z-score within array); higher = stronger binding
# Details in all cases: glycan notation: IUPAC condensed, linker removed
# [1] = biological target: Gal(b1-4)GlcNAc(b1-3)Gal(b1-4)GlcNAc(b1-6)[Gal(b1-3)]GalNAc
# Procedure, shortened: (§1)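 From the Consortium for Functional Glycomics database, 3228 arrays were curated, keeping only those whose protein sequence was available. Binding is given as a within-array Z-score averaged across arrays sharing a protein sequence and across linkers. Negative Z-scores can be read as non-binding.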
# [2] = biological target: Gal(b1-4)GlcNAc(b1-3)Gal(b1-4)[Fuc(a1-3)]GlcNAc(b1-3)Gal(b1-4)[Fuc(a1-3)]GlcNAc
# Procedure, shortened: as §1
# [3] = biological target: Gal(b1-4)GlcNAc(b1-3)GalNAc
# Procedure, shortened: as §1
# [4] = biological target: Gal(b1-4)GlcNAc(b1-3)[Fuc(a1-3)GlcNAc(b1-6)]Gal(b1-4)Glc
# Procedure, shortened: as §1
# [5] = biological target: Gal(b1-4)GlcNAc(b1-3)[Gal(b1-4)GlcNAc(b1-6)]Gal(b1-4)GlcNAc
# Procedure, shortened: as §1
# [6] = biological target: Gal(b1-4)GlcNAc(b1-3)[GlcNAc(b1-6)]Gal(b1-4)GlcNAc
# Procedure, shortened: as §1
# [7] = biological target: Gal(b1-4)GlcNAc(b1-6)Gal(b1-4)GlcNAc
# Procedure, shortened: as §1
# [8] = biological target: Gal(b1-4)GlcNAc(b1-6)GalNAc
# Procedure, shortened: as §1
# [9] = biological target: Gal(b1-4)GlcNAc(b1-6)[Gal(b1-3)]GalNAc
# Procedure, shortened: as §1
# [10] = biological target: Gal(b1-4)GlcNAc(b1-6)[Gal(b1-4)GlcNAc(b1-3)]GalNAc
# Procedure, shortened: as §1
# [11] = biological target: Gal(b1-4)GlcNAc6P
# Procedure, shortened: as §1
# [12] = biological target: Gal(b1-6)Gal
# Procedure, shortened: as §1
# [13] = biological target: Gal3S(b1-3)GalNAc
# Procedure, shortened: as §1
# [14] = biological target: Gal3S(b1-3)GlcNAc
# Procedure, shortened: as §1
# [15] = biological target: Gal3S(b1-3)[Fuc(a1-4)]GlcNAc
# Procedure, shortened: as §1
# [16] = biological target: Gal3S(b1-4)Glc
# Procedure, shortened: as §1
# [17] = biological target: Gal3S(b1-4)Glc6S
# Procedure, shortened: as §1
# [18] = biological target: Gal3S(b1-4)GlcNAc
# Procedure, shortened: as §1
# [19] = biological target: Gal3S(b1-4)[Fuc(a1-3)]Glc6S
# Procedure, shortened: as §1
# [20] = biological target: Gal3S(b1-4)[Fuc(a1-3)]GlcNAc
# Procedure, shortened: as §1
# [21] = biological target: Gal3S(b1-4)[Fuc(a1-3)]GlcNAc6S
# Procedure, shortened: as §1
# [22] = biological target: Gal3S4S(b1-4)GlcNAc
# Procedure, shortened: as §1
# [23] = biological target: Gal3S6S(b1-4)GlcNAc
# Procedure, shortened: as §1
# [24] = biological target: Gal3S6S(b1-4)GlcNAc6S
# Procedure, shortened: as §1
# [25] = biological target: Gal4S(b1-4)GlcNAc
# Procedure, shortened: as §1
# [26] = biological target: Gal4S6S(b1-4)GlcNAc
# Procedure, shortened: as §1
# [27] = biological target: Gal6P(b1-4)GlcNAc
# Procedure, shortened: as §1
# [28] = biological target: Gal6S(b1-3)GlcNAc
# Procedure, shortened: as §1
# [29] = biological target: Gal6S(b1-3)GlcNAc6S
# Procedure, shortened: as §1
# [30] = biological target: Gal6S(b1-4)Glc
# Procedure, shortened: as §1
# [31] = biological target: Gal6S(b1-4)Glc6S
# Procedure, shortened: as §1
# [32] = biological target: Gal6S(b1-4)GlcNAc
# Procedure, shortened: as §1
# [33] = biological target: Gal6S(b1-4)GlcNAc6S
# Procedure, shortened: as §1
# [34] = biological target: GalNAc(a1-3)Gal
# Procedure, shortened: as §1
# [35] = biological target: GalNAc(a1-3)GalNAc
# Procedure, shortened: as §1
# [36] = biological target: GalNAc(a1-3)GalNAc(b1-3)Gal(a1-4)Gal(b1-4)Glc
# Procedure, shortened: as §1
# [37] = biological target: GalNAc(a1-3)GalNAc(b1-3)Gal(a1-4)Gal(b1-4)GlcNAc
# Procedure, shortened: as §1
binder,measurement,setting,value
Na-CTL-1 (Necator americanus) (protein) MQRSFLLLLVVLAGAWAVNTTIPLKLMGGFTPMKYQCVGRVSDIWADVLFLIESSDMITKSGFRQVIAFITATTKKMTIGQDEKQTRVGFITYGEEAKLIYDLDHWRSTEKLSDLVQKIPYVKSSGTNIAAAIALANKVFNSPTHRPNVPKVMVIVANGLKKGSQNPIPVATAFKDFGGIIITIEYTQYDNIQVPILKKIASEGYNIRSNDEDFSVRTLTNMLLQANCFCPDHYVPFRVNNPEFGCFVTAKIPSMWRDAAEMCRAVEEGKLVKVENEEKAAFIMKLVGPKKEAWIGLRYYGNKFQWTDGTKLNADDFNLWPEDIKELNGPHCVSMYQDQKDKKYYWRAGKCLEDMRYVCEVQPCSASNYCSEPVFMYRQKHRALLPAPPPPPN,glycan array binding signal (z-score),[1],-0.048
same,glycan array binding signal (z-score),[2],-0.29
same,glycan array binding signal (z-score),[3],-0.177
same,glycan array binding signal (z-score),[4],-0.16
same,glycan array binding signal (z-score),[5],-0.557
same,glycan array binding signal (z-score),[6],-0.3
same,glycan array binding signal (z-score),[7],-0.042
same,glycan array binding signal (z-score),[8],0.111
same,glycan array binding signal (z-score),[9],-0.234
same,glycan array binding signal (z-score),[10],0.069
same,glycan array binding signal (z-score),[11],-0.23
same,glycan array binding signal (z-score),[12],-0.175
same,glycan array binding signal (z-score),[13],-0.182
same,glycan array binding signal (z-score),[14],0.98
same,glycan array binding signal (z-score),[15],-0.487
same,glycan array binding signal (z-score),[16],0.021
same,glycan array binding signal (z-score),[17],0.514
same,glycan array binding signal (z-score),[18],0.593
same,glycan array binding signal (z-score),[19],0.797
same,glycan array binding signal (z-score),[20],0.136
same,glycan array binding signal (z-score),[21],0.931
same,glycan array binding signal (z-score),[22],-0.537
same,glycan array binding signal (z-score),[23],0.472
same,glycan array binding signal (z-score),[24],0.998
same,glycan array binding signal (z-score),[25],-0.434
same,glycan array binding signal (z-score),[26],0.292
same,glycan array binding signal (z-score),[27],0.128
same,glycan array binding signal (z-score),[28],0.848
same,glycan array binding signal (z-score),[29],-0.291
same,glycan array binding signal (z-score),[30],0.755
same,glycan array binding signal (z-score),[31],0.075
same,glycan array binding signal (z-score),[32],0.607
same,glycan array binding signal (z-score),[33],-0.321
same,glycan array binding signal (z-score),[34],-0.696
same,glycan array binding signal (z-score),[35],0.002
same,glycan array binding signal (z-score),[36],-0.099
same,glycan array binding signal (z-score),[37],-0.25
